Here are results for three compounds from PubChem BioAssay (NCI).

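Compound exposure: 48 hours, 5 concentrations, 96-well plates. GI50 is the concentration that inhibits growth by half. At the TGI there is no net growth.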

For this experiment, the system named is NCI-H322M lung. The experiment can be described thus: NCI-60 cell line screen, 48 h.

In the case of `CCCCCc1ccc(S(=O)(=O)N(C(C)=O)c2cccc(-c3csc(N(CCN4CCN(C)CC4)C(C)=O)n3)c2)cc1`, the GI50 is 3.24 µM and the TGI came to 6.46 µM.

`COc1ccc(-c2nc3cc(Cl)c(Cl)cc3n2CC(=O)N=Nc2c(O)[nH]c3ccc(Cl)cc23)cc1`: the GI50 is 1.75 µM and the TGI turned out to be 3.63 µM.

As for `CCCCCc1ccc(S(=O)(=O)Nc2cc(-c3csc(NC(=O)CN4CCN(C)CC4)n3)ccc2OC)cc1`, the GI50 was 1.28 µM and the TGI stood at 3.96 µM.
